Test results: PMC4336329 (PLoS ONE, 2015)
About 2,200 (0.71%) of roughly 310,000 compounds showed an effect of 50% or more. The effect is printed as a negative number. Some of the results follow.

Target: human ether-à-go-go-related gene (hERG) potassium channel (human, UniProt Q12809)
Assay: primary screen, population patch clamp on CHO cells stably expressing hERG

Sequence of human ether-à-go-go-related gene (hERG) potassium channel (Q12809 whole entry, looked up): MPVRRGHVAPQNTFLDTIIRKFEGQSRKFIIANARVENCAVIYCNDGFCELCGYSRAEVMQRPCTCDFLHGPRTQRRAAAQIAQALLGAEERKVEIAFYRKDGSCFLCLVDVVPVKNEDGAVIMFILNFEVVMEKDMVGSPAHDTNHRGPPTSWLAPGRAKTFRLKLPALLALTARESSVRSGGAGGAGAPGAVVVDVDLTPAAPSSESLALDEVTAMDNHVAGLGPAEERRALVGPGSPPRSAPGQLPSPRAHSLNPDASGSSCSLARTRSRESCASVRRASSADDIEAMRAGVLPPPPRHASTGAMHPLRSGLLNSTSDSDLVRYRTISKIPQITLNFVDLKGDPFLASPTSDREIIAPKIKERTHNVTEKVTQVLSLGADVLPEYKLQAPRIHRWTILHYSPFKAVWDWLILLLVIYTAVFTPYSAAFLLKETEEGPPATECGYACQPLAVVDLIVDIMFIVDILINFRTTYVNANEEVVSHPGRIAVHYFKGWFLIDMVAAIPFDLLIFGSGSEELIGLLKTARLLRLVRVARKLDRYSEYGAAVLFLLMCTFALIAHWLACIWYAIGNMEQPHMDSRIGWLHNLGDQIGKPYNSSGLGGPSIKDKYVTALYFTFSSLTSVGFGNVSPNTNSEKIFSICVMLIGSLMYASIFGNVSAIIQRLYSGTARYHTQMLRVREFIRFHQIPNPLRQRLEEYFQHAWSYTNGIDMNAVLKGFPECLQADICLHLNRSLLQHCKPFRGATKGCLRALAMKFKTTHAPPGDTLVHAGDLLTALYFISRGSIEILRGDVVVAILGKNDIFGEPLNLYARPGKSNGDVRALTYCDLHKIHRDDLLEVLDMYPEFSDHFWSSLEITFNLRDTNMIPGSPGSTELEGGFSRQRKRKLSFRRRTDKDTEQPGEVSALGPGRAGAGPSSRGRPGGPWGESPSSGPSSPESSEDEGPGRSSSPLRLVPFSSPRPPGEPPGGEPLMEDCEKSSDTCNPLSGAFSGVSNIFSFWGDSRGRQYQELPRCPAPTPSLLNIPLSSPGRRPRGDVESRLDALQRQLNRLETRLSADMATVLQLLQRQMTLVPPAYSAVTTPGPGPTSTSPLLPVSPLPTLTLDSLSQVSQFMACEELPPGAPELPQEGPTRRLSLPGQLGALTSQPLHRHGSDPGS

Row | SMILES | hERG current change (%, negative = inhibition) at 1uM [%]
1 | COc1ccc(OCC(=O)Nc2ccc(S(=O)(=O)N3CCN(C)CC3)cc2)cc1 | 10.3
2 | Clc1ccc(SCc2cc(Cl)nc(-c3ccccc3)n2)cc1 | 16.5
3 | Cc1cc(-c2cc(-c3ccc(Cl)cc3)nc(N)c2C#N)co1 | 7.72
4 | Cc1c(C(=O)N(Cc2cccc(Br)c2)C2CCS(=O)(=O)C2)oc2ccc(F)cc12 (centres unmarked) | 9.61
5 | N#Cc1cc(C#N)c(N2CCN(c3cccc(Cl)n3)CC2)nc1N | -3.52
6 | CC1=NN(C(C#N)c2c(C)nn(Cc3ccccc3)c2C)C(C)(C)C1 (centres unmarked) | 8.87
7 | CCOC(=O)c1ccc(NCc2ccncc2)cc1 | 6.86
8 | O=S(=O)(c1ccc(Cl)cc1Cl)N1CCCC1c1cccnc1 (centres unmarked) | 10.7
9 | Cc1cc(C(=O)N2CCCC(N3CCN(c4cccc(C(F)(F)F)c4)CC3)C2)nn1C (centres unmarked) | -1.14
10 | O=C(Cc1cccc2ccccc12)NCC1CCCO1 (centres unmarked) | 2.35
11 | CCS(=O)(=O)N1CCC(C(=O)Oc2ccc(Cl)cc2)CC1 | 11.2
12 | O=C(Nc1ccccc1)c1cc(S(=O)(=O)NCc2ccncc2)ccc1Cl | -5.71
13 | COc1ccc(CNCCc2c[nH]c3ccccc23)cc1OC.O=C(O)C(=O)O | 2.69
14 | O=C(CCC(=O)Nc1ccccc1)NNC(=O)C(c1ccccc1)c1ccccc1 | 3.09
15 | O=C(C1CCCCC1)N1CCN(c2ncccn2)CC1 | 3.75
16 | COc1ccc(CCNC2CCC(c3ccccc3)CC2)cc1 (centres unmarked) | -44.5
17 | COCCN(CCOC)C(=O)C1CCN(c2ccc(S(=O)(=O)N3CCOCC3)cc2[N+](=O)[O-])CC1 | -2.9
18 | Cc1nc2nc(SCC(=O)NCc3ccco3)nn2c(C)c1Cc1ccccc1 | -4.46
19 | COc1ccc(Cl)cc1NS(=O)(=O)N1CCOCC1 | 9.8
20 | N#Cc1cccc(OCC(=O)NC(=O)NCc2ccccc2)c1 | -1.76
21 | COCCNC(=O)CN(C)S(=O)(=O)c1ccc(Br)cc1 | 3.19
22 | C=CCn1c(O)c(C=NCCCn2ccnc2)c(=O)[nH]c1=O | 14.2
23 | COc1cccc(N(C(=O)Cn2nnc(-c3cccs3)n2)C(C(=O)NC(C)C)c2ccc(C)o2)c1 (centres unmarked) | 9.65

Row | SMILES | hERG current change (%, negative = inhibition) at 1uM [%]
24 | Cc1cccc(-c2nc3ccccc3c(=O)[nH]2)c1 | 13.1
25 | CCOc1ccc(CC(=O)C2=C(N3CCOCC3)CC(C)(C)CC2=O)cc1OCC | 7.38
26 | COc1ccc(NC(=O)N(CCCN(C)C)Cc2cc3cc(OC)ccc3[nH]c2=O)cc1 | -7.1
27 | O=C(/C=C/Nc1ccccc1OC(F)(F)F)C(F)(F)F | 5.08
28 | COc1ccc(OC)c(S(=O)(=O)N2CCC(C(=O)N3CCCCCC3)CC2)c1 | 8.86
29 | COC(=O)c1cn(NC(=O)c2cccnc2)c(=O)c2ccccc12 | 15
30 | CN1/C(=C\C(=O)c2cccs2)C(C)(C)c2ccccc21 | 3.57
31 | N=C1C(c2nc(-c3cccc([N+](=O)[O-])c3)cs2)=C(O)CN1NC(=O)c1ccco1 | 9.22
32 | CNc1nc(Cl)nc(Nc2ccccc2)n1 | 17.5
33 | Cc1c(/C=N/Nc2ccc(F)cc2)c(O)n(C)c(=O)c1C#N | 8.61
34 | CCOC(=O)c1ccc(NC(=O)c2c(Cl)cc(C)nc2C)cc1.Cl | 6.89
35 | COc1cccc(N2CCN(S(=O)(=O)c3cc4c(cc3C)N(C)CCO4)CC2)c1 | 1.14
36 | COc1ccc(C(=O)Nc2cc(C(C)=O)c(C)oc2=O)cc1 | 12.8
37 | COc1ccc(C(=O)n2nc(-c3ccco3)nc2N)cc1 | 5.5
38 | CCCN1CCC(=O)N([C@H](CSc2ccc(OC)cc2)Cc2ccccc2)CC1 | -36.3
39 | CN(Cc1ccccn1)Cc1cn(Cc2ccccc2)nc1-c1ccc2c(c1)OCO2 | -0.8
40 | O=C(CSc1nc2ncc(Cl)cc2[nH]1)NCCc1ccc(F)cc1 | 11.2
41 | O=C(NC1CCCCCCC1)c1cccnc1 | 5.68
42 | CC1CCc2nn(CC(=O)NC3CCCC(C)C3C)cc2C1 (centres unmarked) | 5.66
43 | N/C(=N\OC(=O)c1ccc2c(c1)OCO2)c1cccc(Br)c1 | 6.24
44 | CCCCNC(=O)CCn1nc(-c2ccc(Cl)cc2)ccc1=O | 5.63
45 | O=C(NC1CCCCC1)Oc1cccc2ccccc12 | 15.9
46 | COc1ccc(C2NC(=O)CS2)cc1 (centres unmarked) | -8.67

Row | SMILES | hERG current change (%, negative = inhibition) at 1uM [%]
47 | O=C(CC1C(=O)NCCN1C(=O)c1ccc([N+](=O)[O-])cc1)Nc1cccc(Cl)c1 (centres unmarked) | -2.37
48 | N#C/C(=C/c1ccco1)C(N)=S | 6.97
49 | O=C(O)c1cc(NC(=O)C2CCCO2)cc(NC(=O)C2CCCO2)c1 (centres unmarked) | 6.2
50 | CCOC(=O)c1cc(CC)sc1/N=C/C1C(=O)CCCC1=O | 11.1
51 | CC(C)NC(=O)c1c(O)c2cccc3c2n(c1=O)CCC3 | 15.5
52 | COCCn1nnnc1C(c1ccc2ncccc2c1)N1CCN(c2ccccc2F)CC1 (centres unmarked) | 7.87
53 | Cn1c(=O)c2c(ncn2CC(=O)OCC(=O)NC2CCCc3ccccc32)n(C)c1=O (centres unmarked) | 6.89
54 | NC(=O)COC(=O)C12CC3CC(CC(O)(C3)C1)C2 | 10.1
55 | CCOC(=O)C1CCCN(c2oc(-c3ccc(F)cc3)nc2C#N)C1 (centres unmarked) | -0.349
56 | O=C(Nc1cccc([N+](=O)[O-])c1)C1CCN(C(=O)Cc2ccccc2)CC1 | -12.8
57 | CCOC(=O)C1CCN(C(=O)CCS(=O)(=O)c2ccc3c(c2)CCN3C(=O)CC)CC1 | 6.63
58 | c1ccc(Cn2nnc3c(N4CCN(Cc5ccc6c(c5)OCO6)CC4)ncnc32)cc1 | -0.682
59 | CCOc1cc2[nH]c(=S)n(CCc3ccc(OC)c(OC)c3)c(=O)c2cc1OCC | 1.01
60 | O=C(CCN1C(=O)[C@@H]2Cc3ccccc3CN2C1=O)N[C@@H](C(=O)O)c1ccccc1 | 11.1
61 | O=C(Cc1ccc(F)cc1)Nc1nc(-c2ccc(F)cc2)cs1 | 22.4
62 | O=C(/C=C/c1ccc([N+](=O)[O-])cc1)N1CCN(S(=O)(=O)c2cccs2)CC1 | 2.21
63 | Cc1csc(NC(=O)c2cnc3ccccc3n2)n1 | 7.3
64 | COc1ccc(Cl)cc1NC(=O)C1CC(c2c(F)cccc2Cl)=NO1 (centres unmarked) | 8.77
65 | CCN(CC)CCN(C(=O)c1ccc(C(C)=O)cc1)c1nc2ccc(Cl)cc2s1.Cl | 6.65
66 | CC(=O)Nc1cccc(Oc2ccc3c(c2)C(=O)N(CCC(=O)O)C3=O)c1 | 14.8
67 | Cc1ccccc1C(=O)N1CCc2cc(-c3csc(NC(=O)CN4CCCC4)n3)ccc21 | 14.3
68 | O=C(NCCS(=O)(=O)N1CCN(c2ccccc2F)CC1)c1c(F)cccc1F | 3.03
69 | Cc1cccc(OCCCCNCc2ccccc2)c1.O=C(O)C(=O)O | -7.43

Row | SMILES | hERG current change (%, negative = inhibition) at 1uM [%]
70 | COc1ccc(CN2CCCC(C(=O)N3CCCCC3)C2)cc1.O=C(O)C(=O)O (centres unmarked) | 10.5
71 | Cc1ccc(NC(=O)C2=NNC(=O)CC2)cc1S(=O)(=O)Nc1ccc(SC(F)F)cc1 | 2.82
72 | CCc1nnc(NC(=O)CSc2nccn2-c2cccc(C)c2C)s1 | 17.4
73 | CC(=O)N(CCC1(C(C)C)CCOC(C)(C)C1)C(C)c1cccs1 (centres unmarked) | 11.5
74 | CC1(CC(=O)N/N=C/c2ccc(-c3ccc(C(=O)O)cc3)o2)OCCO1 | 1.83
75 | CC(CO)Nc1nc(SCc2ccccc2)nc2sc3c(c12)CCC3 (centres unmarked) | 15.5
76 | O=C(NCC1CCCN1S(=O)(=O)c1cccs1)c1c(F)cccc1F (centres unmarked) | 17.5
77 | CCCn1c(C)cc(C(=O)CSc2nc3nc(C)cc(C)n3n2)c1C | 8.43
78 | COc1ccc(C)cc1NC(=O)COC(=O)c1ccc([N+](=O)[O-])o1 | 11.9
79 | CCCC(=O)Nc1cc(=O)[nH]c2ncnn12 | 7.73
80 | Cc1nn(CC(=O)N2CCOCC2)c(=O)c2c1sc1ccccc12 | 2.63
81 | CCc1ccc(NC(=O)CCn2c(=O)oc3ccccc32)cc1 | 5.27
82 | CCn1c(CN2CCN(c3ccc(Cl)cc3)CC2)nc2ccccc21 | -12.7
83 | Cc1ccc(C(C)NC(=S)NC2CCCCC2)cc1C (centres unmarked) | 9.56
84 | COc1ccc(C(=O)NCC(=O)OCc2ccccc2F)cc1 | 9.29
85 | Cc1cc(C)c(S(=O)(=O)N(CC(=O)N2CCOCC2)C2CCCCC2)c(C)c1 | 4.05
86 | Cc1ccc(C(=O)N/C(=C\c2cccs2)c2nc3ccccc3[nH]2)cc1 | 7.15
87 | Cc1cccc(C(=O)N[C@H](C(=O)OCC(=O)NC(=O)c2cccn2C)C(C)C)c1 | 10.6
88 | O=C(O)Cc1ccc(NCc2ccccc2Cl)cc1 | 3.32
89 | CN(C)c1ccc(S(=O)(=O)N2CCCCC2)cc1NC(=O)CN1C(=O)NC2(CCCC2)C1=O | 13.2
